Out of some 310,000 compounds screened, about 2,200 (0.71%) showed an effect of 50% or more. The effect is printed as a negative number. Some of the results follow.
molecular target: human ether-à-go-go-related gene (hERG) potassium channel (human, UniProt Q12809); assay: primary screen, population patch clamp on CHO cells stably expressing hERG
Sequence (Q12809 whole entry, looked up): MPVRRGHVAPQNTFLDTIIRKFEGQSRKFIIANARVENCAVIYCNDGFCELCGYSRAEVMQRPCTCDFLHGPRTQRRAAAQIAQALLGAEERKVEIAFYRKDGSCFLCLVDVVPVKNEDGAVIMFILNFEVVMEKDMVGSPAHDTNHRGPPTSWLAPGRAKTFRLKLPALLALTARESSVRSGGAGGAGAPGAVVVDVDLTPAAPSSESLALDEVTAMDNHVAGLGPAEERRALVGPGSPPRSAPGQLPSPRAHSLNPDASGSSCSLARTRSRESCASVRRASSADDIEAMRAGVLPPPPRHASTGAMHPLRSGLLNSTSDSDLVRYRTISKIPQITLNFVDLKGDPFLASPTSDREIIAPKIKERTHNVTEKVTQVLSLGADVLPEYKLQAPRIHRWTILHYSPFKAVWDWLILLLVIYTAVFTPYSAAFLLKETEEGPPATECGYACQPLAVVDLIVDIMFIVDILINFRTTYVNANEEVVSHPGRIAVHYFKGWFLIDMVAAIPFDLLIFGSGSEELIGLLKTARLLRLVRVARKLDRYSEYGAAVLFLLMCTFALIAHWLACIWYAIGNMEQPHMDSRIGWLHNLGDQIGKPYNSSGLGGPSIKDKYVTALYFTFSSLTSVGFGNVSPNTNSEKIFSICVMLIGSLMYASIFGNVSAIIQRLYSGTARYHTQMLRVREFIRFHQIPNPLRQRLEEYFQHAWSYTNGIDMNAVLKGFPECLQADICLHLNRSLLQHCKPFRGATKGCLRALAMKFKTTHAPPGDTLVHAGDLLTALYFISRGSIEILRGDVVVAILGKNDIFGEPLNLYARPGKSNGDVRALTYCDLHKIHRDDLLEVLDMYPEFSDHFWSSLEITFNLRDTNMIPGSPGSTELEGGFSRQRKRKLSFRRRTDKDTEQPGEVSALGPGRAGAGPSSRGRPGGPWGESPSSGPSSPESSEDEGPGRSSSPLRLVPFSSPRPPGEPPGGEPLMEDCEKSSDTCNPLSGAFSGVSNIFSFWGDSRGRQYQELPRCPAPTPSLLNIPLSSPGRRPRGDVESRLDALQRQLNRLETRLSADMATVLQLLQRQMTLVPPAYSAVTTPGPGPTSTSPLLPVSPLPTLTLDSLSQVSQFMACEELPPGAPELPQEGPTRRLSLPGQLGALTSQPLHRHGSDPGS

| Compound | hERG current change (%, negative = inhibition) at 1uM [%] |
| --- | --- |
| COc1ccccc1NC(=S)NCCc1ccccc1 | 3.07 |
| COc1cccc(-c2nnc(-c3ccco3)o2)c1 | 14.6 |
| CCn1cc(C(=O)NC2CCC(C)CC2)c(=O)c2cc(S(=O)(=O)N3CCCCC3)ccc21 (stereo not shown) | -5.66 |
| Cc1ccc(S(=O)(=O)N2CCN(Cc3ccccc3)CC2)c(C)c1N(C)S(=O)(=O)c1ccccc1 | 10.5 |
| Cc1cc(=O)oc2c(C)c(OC(C)C(=O)NCc3ccccn3)ccc12 (stereo not shown) | 6.32 |
| CS(=O)(=O)N1CCC(C(=O)Nc2cccc(Cl)c2)CC1 | 13.9 |
| CC1CCCCC1Nc1ncnc2sccc12 (stereo not shown) | 7.47 |
| CC(=O)c1cccc(NC(=O)Nc2nc(C)cc(C)n2)c1 | 14.8 |
| Cc1ccccc1-n1c(C)cc(/C=C2/C(=O)NC(=O)N(Cc3ccco3)C2=O)c1C | 8.72 |
| C/C(=N/NC(=O)C(C)n1nc(C)c([N+](=O)[O-])c1C)c1ccc(OCC(N)=O)cc1 (stereo not shown) | 10.5 |
| CC(=O)Nc1ccc(N2CCCCC2)cc1 | 10.6 |
| O=C(COC(=O)c1ccc2c(c1)OCO2)Nc1ccccc1Cl | 6.58 |
| O=c1nc2sc3ccccc3n2c(=O)n1-c1cccc(Cl)c1 | 8 |
| CSc1ccc(CCNS(=O)(=O)c2ccc3c(c2)C(C)(C)C(=O)N3C)cc1 | 6.87 |
| CCC(C)NC(=O)Cn1cnc2sc(C)c(S(=O)(=O)N3CCN(c4ccccc4OC)CC3)c2c1=O (stereo not shown) | 13.3 |
| CC(C)NS(=O)(=O)c1ccc(NC(=O)c2cccnc2)cc1 | 9.89 |
| Cc1cc(C)nc(NC2=NCC(=O)N2c2ccc3c(c2)OCCO3)n1 | 9.09 |
| Cc1ccc2c(c1)N(CC(=O)NCCCN1C(C)CCCC1C)C(=O)c1cccnc1O2 (stereo not shown) | 7.37 |
| CNS(=O)(=O)c1cccc(C(=O)OCC(=O)c2cc(C)n(CC3CCCO3)c2C)c1 (stereo not shown) | -7.08 |
| CCc1cc(=O)oc2c(C)c(OCC(=O)NCCCN3CCOCC3)ccc12 | 1.14 |

| Compound | hERG current change (%, negative = inhibition) at 1uM [%] |
| --- | --- |
| CCC(C)C(NC(=O)c1ccccc1NC(=O)c1ccco1)C(=O)NNC(=O)c1ccncc1 (stereo not shown) | 6.17 |
| CN(C)C(CNc1ccc(S(C)(=O)=O)cc1[N+](=O)[O-])Cc1ccccc1 (stereo not shown) | -5.39 |
| Cc1ccc(S(=O)(=O)c2cc(N3CCOCC3)nc(-c3ccccc3)n2)cc1 | 10.9 |
| CCN(CC)c1ccc(/C=N/O)cc1 | 19 |
| CN(CCC#N)CC(=O)Nc1ccc(S(N)(=O)=O)cc1 | 9.08 |
| CCOC(=O)c1cc(C)[nH]c(=S)c1C#N | -10.6 |
| Oc1ccc(Nc2nc(-c3ccc4ccccc4c3)cs2)cc1 | 4.3 |
| NC(=O)NC1CCCc2c1[nH]c1ccc(Cl)cc21 (stereo not shown) | 11.2 |
| Cl.OC(COCc1ccccc1)CN1CCN(c2ccccc2F)CC1 (stereo not shown) | -7.31 |
| C(#CCN1CCOCC1)COCc1ccccc1.Cl | 14.5 |
| CCc1cccc(C)c1N(C(=O)Cn1c(COC)nc2ccccc21)C(C)COC (stereo not shown) | 2.16 |
| CC1=NN(Cc2ccccc2)C(=O)C1C(c1ccccc1)C(C#N)C#N (stereo not shown) | 9.32 |
| Cn1c(CNC(=O)c2ccco2)nnc1SCC(=O)Nc1ccccc1Cl | 2.28 |
| Clc1ccc2c(N/N=C/c3ccc(Br)cc3)ccnc2c1 | 18.5 |
| CCn1c2c(c3cc(Br)ccc31)CCC/C2=N\O | 3.59 |
| CCc1ccc(S(=O)(=O)Nc2cccc(-c3ccc4nncn4n3)c2)s1 | 7.31 |
| COc1ccc(CCNC(=O)c2cccc(S(=O)(=O)NC(C)c3ccccc3)c2)cc1 (stereo not shown) | 5.6 |
| CCN(CC)C(=O)/C=C/c1ccc(OC)c(S(=O)(=O)N2CCCCC2)c1 | 3.26 |
| COc1ccc(C2(C(=O)NCCCN3CCOCC3)CCOCC2)cc1.Cl | 9.62 |
| Cn1c(SCc2nnc3n2CCCCC3)nc2ccccc21 | 9.34 |

| Compound | hERG current change (%, negative = inhibition) at 1uM [%] |
| --- | --- |
| CC(C)(C)c1cc(-c2n[nH]c(=S)n2-c2ccc(Cl)cc2)n[nH]1 | 12.5 |
| CCC(Sc1nc2ccsc2c(=O)n1-c1ccc(Cl)c(C)c1)C(=O)NCc1ccco1 (stereo not shown) | 1.88 |
| CCOC(=O)c1oc2c(C)c(O)ccc2c(=O)c1-c1nncn1-c1ccccc1 | 7.41 |
| CC1CN(C(=O)Cc2ccc(-c3ccccc3)cc2)CC(C)O1 (stereo not shown) | 6.77 |
| CCOc1ccc(NC(=O)CN(C)C(=O)c2c(-c3ccccc3)noc2C)cc1OCC | 1.1 |
| CCc1ccc(NC(=O)C(=O)NCCN2CCN(Cc3ccc([N+](=O)[O-])cc3)CC2)cc1 | -67.4 |
| COc1cccc(-n2c(C)nnc2SCC#N)c1 | -7.48 |
| O=C(NCc1cccc(Cl)c1)C1=CC=CN2CCS(=O)(=O)N=C12 | 11.8 |
| O=C1N(CN2CCN(Cc3ccccc3)CC2)c2ccccc2C12OCCCO2 | 6.97 |
| CNC(=O)c1sc(-c2ccccn2)nc1C | 3.3 |
| CC1=C(C)CC(C(=O)Nc2cccc(Cl)c2)C(C(=O)O)C1 (stereo not shown) | 5.17 |
| C/C(=N\NC(=O)COc1c(C)cccc1C)c1cccs1 | 8.57 |
| CCCCC1CCC(C(=O)N(CCOC)c2c(N)n(CC(C)C)c(=O)[nH]c2=O)CC1 (stereo not shown) | 15 |
| CCCNC(=O)N1[C@H]2CC[C@@H]1C(C(=O)OC)=C(c1cccc(OC)c1OC)C2 | 17.9 |
| COc1ccc(N(Cc2ccco2)C(=O)c2ccccc2F)cc1OC | 6.64 |
| NNC(=O)c1ccc(Cn2cc(Cl)cn2)cc1 | -3.62 |
| COC(=O)N1CCN(c2ccc(C)cc2)C(C)C1 (stereo not shown) | 10.3 |
| COc1ccc(C(=O)CC(=O)C(=O)Nc2ccc([N+](=O)[O-])cc2C)cc1 | 12.6 |
